In a collection of fitness landscapes (doi:10.1038/s41467-024-54723-y):
Over roughly 18,000 sequences, “TetR repression strength (sort-seq, GFP reporter)” has its median near 0.23; the highest 2% begin near 0.68. This is one part of the list.

Each sequence was assayed against TetR (class B, Tn10) (UniProt P04483) (assay: TetR repression strength (sort-seq, GFP reporter) (relative to tetO2 = 1); higher = stronger repression). Conditions: E. coli.
Sequence of UniProt P04483 (P04483 whole entry): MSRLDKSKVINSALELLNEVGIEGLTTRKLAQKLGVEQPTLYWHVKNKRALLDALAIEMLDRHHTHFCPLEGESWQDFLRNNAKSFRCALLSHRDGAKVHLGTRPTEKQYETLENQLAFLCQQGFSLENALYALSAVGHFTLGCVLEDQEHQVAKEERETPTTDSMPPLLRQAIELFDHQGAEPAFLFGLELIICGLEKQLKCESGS
In short: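 Repression strength is the top bin index plus one minus the read-weighted mean bin, relative to the unaltered operator's value. A low-copy library in E. coli SIG10-MAX randomized eight operator positions between a constitutive promoter and sfGFP, with TetR expressed constitutively; cells grew 5 h at 37 °C in LB with 50 µg/mL chloramphenicol and 10^6 were FACS-sorted into 13 bins that were each Illumina-sequenced. Three independent transformations were averaged, keeping only members with ≥30 reads in all replicates and CV ≤0.5.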
With TCCCCCCGAGTGCTGGAGA the TetR repression strength was 0.344. In the case of TCCCGTGGAGTCTGCGAGA, the TetR repression strength is reported as 0.0296. TCCCCGCAAGTGTCCGAGA was tested, and the TetR repression strength was 0.334. With TCCCTATCAGTTACAGAGA the TetR repression strength was 0.707. TCCCCAAAAGTGGTGGAGA gave a TetR repression strength of 0.247. TCCCGCGGAGTATTTGAGA showed a TetR repression strength of 0.333. For TCCCTTCAAGTTAAAGAGA, the TetR repression strength was 0.252. TCCCGTACAGTTTTGGAGA was tested, and the TetR repression strength was 0.42. TCCCTAGGAGTCCTAGAGA gave a TetR repression strength of 0.342. For TCCCGTCAAGTCGTAGAGA, the TetR repression strength was 0.26. TCCCGATCAGTCGTAGAGA gave a TetR repression strength of 0.354. In the case of TCCCTCCAAGTGTATGAGA, the TetR repression strength is reported as 0.35. With TCCCTGTAAGTGGTAGAGA the TetR repression strength was 0.466. TCCCTGGAAGTGCTGGAGA showed a TetR repression strength of 0.394. Work on TCCCTTATAGTCCCCGAGA yielded a TetR repression strength of 0.378. Sequence TCCCAAAGAGTTGGGGAGA has a TetR repression strength of 0.139. Sequence TCCCGGACAGTCGGAGAGA has a TetR repression strength of 0.165. In the case of TCCCTCCAAGTGCCGGAGA, the TetR repression strength is reported as 0.075. With TCCCGAAAAGTGGGAGAGA the TetR repression strength was 0.0419. In the case of TCCCGTCTAGTGGATGAGA, the TetR repression strength is reported as 0.141. TCCCCACTAGTGTGTGAGA was tested, and the TetR repression strength was 0.104. With TCCCTATCAGTGGTCGAGA the TetR repression strength was 0.532. Sequence TCCCGGATAGTTTAAGAGA has a TetR repression strength of 0.389. Sequence TCCCAAGCAGTACTTGAGA has a TetR repression strength of 0.226. Work on TCCCAGGAAGTGCAGGAGA yielded a TetR repression strength of 0.288. Work on TCCCAATAAGTAGTAGAGA yielded a TetR repression strength of 0.35. Sequence TCCCTTTTAGTTCTTGAGA has a TetR repression strength of 0.394. TCCCTTGGAGTGGCTGAGA showed a TetR repression strength of 0.434. TCCCGCCTAGTTGCTGAGA showed a TetR repression strength of 0.316. For TCCCAGCTAGTGCCGGAGA, the TetR repression strength was 0.458. TCCCCGATAGTGCTAGAGA showed a TetR repression strength of 0.311. TCCCAGGTAGTTTTCGAGA was tested, and the TetR repression strength was 0.358. TCCCGTCAAGTCCTCGAGA showed a TetR repression strength of 0.312. Sequence TCCCGCGAAGTGTTCGAGA has a TetR repression strength of 0.0749. With TCCCACGGAGTCGCCGAGA the TetR repression strength was 0.333. In the case of TCCCGTTTAGTGGTTGAGA, the TetR repression strength is reported as 0.0905. TCCCTGAGAGTGGGCGAGA gave a TetR repression strength of 0.261. With TCCCGGGCAGTCATTGAGA the TetR repression strength was 0.24. TCCCTTAGAGTGTACGAGA was tested, and the TetR repression strength was 0.314. With TCCCGCGTAGTGGTGGAGA the TetR repression strength was 0.256. TCCCACTGAGTGATAGAGA was tested, and the TetR repression strength was 0.551. Sequence TCCCACGGAGTAGTGGAGA has a TetR repression strength of 0.173. TCCCGCAAAGTGGAAGAGA gave a TetR repression strength of 0.281. In the case of TCCCAATCAGTGGTAGAGA, the TetR repression strength is reported as 0.521. For TCCCTGAGAGTCTTCGAGA, the TetR repression strength was 0.191. TCCCAGACAGTTAGGGAGA gave a TetR repression strength of 0.2. TCCCGAATAGTAAGCGAGA gave a TetR repression strength of 0.525. With TCCCAGTTAGTCAGGGAGA the TetR repression strength was 0.497. With TCCCTGTAAGTATTGGAGA the TetR repression strength was 0.125. For TCCCTGGGAGTGACAGAGA, the TetR repression strength was 0.299. Work on TCCCGGTCAGTCGAGGAGA yielded a TetR repression strength of 0.109. For TCCCCCGCAGTATACGAGA, the TetR repression strength was 0.376. TCCCATACAGTCAGGGAGA gave a TetR repression strength of 0.207. TCCCGCGGAGTAGGCGAGA gave a TetR repression strength of 0.108. TCCCTATAAGTTGGTGAGA gave a TetR repression strength of 0.207. TCCCGTATAGTCAAGGAGA was tested, and the TetR repression strength was 0.436. Work on TCCCGCACAGTGGGCGAGA yielded a TetR repression strength of 0.3. Sequence TCCCCGTTAGTGGCTGAGA has a TetR repression strength of 0.238. For TCCCTCTTAGTATGTGAGA, the TetR repression strength was 0.207. Work on TCCCGGTGAGTTCAGGAGA yielded a TetR repression strength of 0.0518. For TCCCTTGAAGTTCGTGAGA, the TetR repression strength was 0.195. Work on TCCCCTCAAGTGATCGAGA yielded a TetR repression strength of 0.387. TCCCAGCGAGTGTTAGAGA gave a TetR repression strength of 0.305. For TCCCGCCAAGTCCGGGAGA, the TetR repression strength was 0.21. TCCCGGTCAGTGTTTGAGA showed a TetR repression strength of 0.61. TCCCGACGAGTACTGGAGA was tested, and the TetR repression strength was 0.259. Sequence TCCCTGTTAGTGGATGAGA has a TetR repression strength of 0.117. Work on TCCCTATCAGTGGCAGAGA yielded a TetR repression strength of 0.771. TCCCTGGGAGTGGCTGAGA gave a TetR repression strength of 0.289. For TCCCAGTGAGTGGGTGAGA, the TetR repression strength was 0.468. TCCCAGTCAGTCCCAGAGA gave a TetR repression strength of 0.365. TCCCACGGAGTGAATGAGA was tested, and the TetR repression strength was 0.33. TCCCAGCTAGTGAGGGAGA showed a TetR repression strength of 0.178. With TCCCAGTCAGTCACCGAGA the TetR repression strength was 0.333. In the case of TCCCTAGGAGTCCCTGAGA, the TetR repression strength is reported as 0.267. Sequence TCCCGAAGAGTAACAGAGA has a TetR repression strength of 0.0646. TCCCTGTCAGTTGATGAGA was tested, and the TetR repression strength was 0.536. TCCCAATTAGTGAAGGAGA showed a TetR repression strength of 0.196. For TCCCGGGAAGTGCAGGAGA, the TetR repression strength was 0.333. Work on TCCCCGGCAGTTGGAGAGA yielded a TetR repression strength of 0.0158. With TCCCGTATAGTTGACGAGA the TetR repression strength was 0.0609. Work on TCCCTGATAGTTTGCGAGA yielded a TetR repression strength of 0.215. TCCCAATGAGTACTCGAGA showed a TetR repression strength of 0.379. TCCCGAGGAGTAGAGGAGA showed a TetR repression strength of 0.411. In the case of TCCCAGGTAGTGTTTGAGA, the TetR repression strength is reported as 0.24. For TCCCGACCAGTGGCCGAGA, the TetR repression strength was 0.167. Work on TCCCGTGGAGTAGAAGAGA yielded a TetR repression strength of 0.308. TCCCGGTGAGTCCGGGAGA gave a TetR repression strength of 0.18. TCCCCGTTAGTGTGGGAGA gave a TetR repression strength of 0.259. With TCCCCTTAAGTCGAGGAGA the TetR repression strength was 0.157. Sequence TCCCCTAGAGTTCACGAGA has a TetR repression strength of 0.159. Sequence TCCCCTTGAGTATCAGAGA has a TetR repression strength of 0.207. Work on TCCCTTAAAGTCCAAGAGA yielded a TetR repression strength of 0.306. TCCCAGCGAGTGGGCGAGA showed a TetR repression strength of 0.124. For TCCCATATAGTTCTGGAGA, the TetR repression strength was 0.197. In the case of TCCCAAACAGTATCAGAGA, the TetR repression strength is reported as 0.622. TCCCGGGTAGTGGGTGAGA showed a TetR repression strength of 0.2. TCCCGTGGAGTCTACGAGA gave a TetR repression strength of 0.102. With TCCCCGACAGTGAAGGAGA the TetR repression strength was 0.0546. Sequence TCCCTATTAGTTGGTGAGA has a TetR repression strength of 0.637. Sequence TCCCTACAAGTTTACGAGA has a TetR repression strength of 0.276. TCCCCGCGAGTGGTCGAGA showed a TetR repression strength of 0.467.
